In PMC4336329 (PLoS ONE, 2015):
Among all 310,000 compounds or so, about 14,000 (4.5%) showed an effect of 50% or more. The effect is printed as a negative number. Some of the results follow.

These compounds were tested against human ether-à-go-go-related gene (hERG) potassium channel (human, UniProt Q12809) (assay: primary screen, population patch clamp on CHO cells stably expressing hERG).
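Further: peak tail current of the secondary pulse compared with the same well before compound.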

human ether-à-go-go-related gene (hERG) potassium channel, sequence (Q12809 whole entry, looked up): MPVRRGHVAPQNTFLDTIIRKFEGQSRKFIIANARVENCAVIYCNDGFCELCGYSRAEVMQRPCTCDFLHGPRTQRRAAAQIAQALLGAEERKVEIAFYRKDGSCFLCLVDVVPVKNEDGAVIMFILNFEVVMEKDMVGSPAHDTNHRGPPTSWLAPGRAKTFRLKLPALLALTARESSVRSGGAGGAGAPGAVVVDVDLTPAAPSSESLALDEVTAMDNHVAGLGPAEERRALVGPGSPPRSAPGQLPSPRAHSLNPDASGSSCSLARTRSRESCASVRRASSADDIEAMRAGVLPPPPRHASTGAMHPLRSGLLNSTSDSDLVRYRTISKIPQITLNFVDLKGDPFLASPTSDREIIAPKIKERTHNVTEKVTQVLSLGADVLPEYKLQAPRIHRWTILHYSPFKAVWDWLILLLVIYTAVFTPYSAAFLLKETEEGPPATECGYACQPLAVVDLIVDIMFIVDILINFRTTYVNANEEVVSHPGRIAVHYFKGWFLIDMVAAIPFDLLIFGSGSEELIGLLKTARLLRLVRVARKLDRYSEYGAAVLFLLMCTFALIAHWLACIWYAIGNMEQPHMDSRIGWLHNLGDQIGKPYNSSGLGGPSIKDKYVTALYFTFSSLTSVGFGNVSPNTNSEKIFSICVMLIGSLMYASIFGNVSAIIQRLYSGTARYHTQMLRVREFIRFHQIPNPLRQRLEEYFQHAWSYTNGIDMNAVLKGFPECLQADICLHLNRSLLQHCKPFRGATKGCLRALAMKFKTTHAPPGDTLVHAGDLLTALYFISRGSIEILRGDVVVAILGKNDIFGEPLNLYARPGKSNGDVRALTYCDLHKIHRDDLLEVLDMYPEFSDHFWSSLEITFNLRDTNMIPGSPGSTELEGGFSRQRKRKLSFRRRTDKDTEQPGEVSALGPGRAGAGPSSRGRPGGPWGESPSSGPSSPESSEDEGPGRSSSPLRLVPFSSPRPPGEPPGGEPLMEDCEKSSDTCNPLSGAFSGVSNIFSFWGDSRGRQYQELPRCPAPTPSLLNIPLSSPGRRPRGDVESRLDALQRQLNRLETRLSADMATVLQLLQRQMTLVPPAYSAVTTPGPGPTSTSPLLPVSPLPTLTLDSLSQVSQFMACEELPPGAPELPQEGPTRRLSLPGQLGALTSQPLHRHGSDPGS

SMILES	hERG current change (%, negative = inhibition) at 10uM
CCCn1c(NC(=O)c2ccccc2Br)nc2ccccc21	16.2%
COc1ccc(N2CCN(CC(O)COc3ccc([N+](=O)[O-])cc3)CC2)cc1.Cl (stereo not shown)	-62.5%
COc1ccn(C)c(=O)c1C#N	12.8%
Cc1sc2ncnc(NCC(O)c3ccccc3)c2c1C (stereo not shown)	17.7%
Cc1ccc(CN(C)CC(=O)Nc2ccccc2C(=O)NC2CC2)o1	-7.18%
O=C(COC(=O)c1n[nH]c2ccccc12)Nc1ccccc1	-3.66%
COc1cccc(NC(=O)C2CCC2)c1	8.83%
Cl.OC(COCc1ccccc1F)CN1CCCCC1 (stereo not shown)	5.73%
COc1ccc(-c2c3c(nc4sc(C(=O)Nc5cc(C)on5)c(N)c24)CCC3)cc1	-10.3%
CCC(=O)c1ccc(OCC(=O)OCC(=O)NC2CCCC2)cc1	13.8%
Cc1ccc(C)c(NC(=O)C2CC(O)CN2C(=O)OC(C)(C)C)c1 (stereo not shown)	12.5%
Cc1ccc(-n2c(SCC(=O)NC3CCS(=O)(=O)C3)nc3ccccc3c2=O)cc1C (stereo not shown)	-11.4%
CN(C(=O)Nc1ccc(S(=O)(=O)N(C)C)cc1)C1CCCCC1	9.24%
CC1CCN(C(=O)CSc2nnc(-c3cccs3)o2)CC1	-16.5%
CCN1C(=O)c2ccccc2Sc2ccc(C(=O)NCCCN(CC(C)C)CC(C)C)cc21	-64.3%
CS(=O)(=O)N1CCN(c2ccc(NC(=O)CSc3nnc(-c4ccco4)o3)cc2)CC1	32.9%
CCN1CCN(c2ncnc3sc(C(=O)Nc4ccccc4F)c(C)c23)CC1	-67%
O=C(CSc1nnc2n1CCCN2)c1ccc([N+](=O)[O-])cc1	-49.8%
O=C(O)C1CCCCC1C(=O)Nc1ccc(F)c(F)c1 (stereo not shown)	3.08%
COCC(C)n1c(SCC(=O)N2CCCCC2)nc2ccccc2c1=O (stereo not shown)	-25.9%
COCC(C)n1c(C)cc(C(=O)CN2C(=O)NC3(CCCCC3C)C2=O)c1C (stereo not shown)	-8.29%
CC1(c2ccccc2Cl)NC(=O)N(CC(=O)N2CCN(S(=O)(=O)c3ccccc3)CC2)C1=O (stereo not shown)	7.55%

SMILES	hERG current change (%, negative = inhibition) at 10uM
Cn1c(N)c(C(=O)Nc2ccccc2F)sc1=S	2.38%
COc1ccc(C(=O)Nc2nccs2)cc1[N+](=O)[O-]	20.4%
COc1ccc(OCC(=O)N2CCN(Cc3ccc(SC)cc3)CC2)cc1.O=C(O)C(=O)O	-50.9%
Cc1ccccc1S(=O)(=O)Cc1ccc(C(=O)N2CCN(C3CCCCC3)CC2)o1	-39.3%
COc1ccc([C@H]2CC(=O)C=C(c3cc(F)ccc3F)C2)cc1OC	-13.3%
O=C(CCCOc1ccc(Cl)cc1Cl)NNC(=O)c1ccc(NC(=O)c2ccccc2)cc1	18.2%
COc1ccc(CNS(=O)(=O)c2ccc(C3CNC(=O)C3)cc2)cc1 (stereo not shown)	-23.6%
COc1cccc(CN(C)CC(=O)Nc2cccc3ccccc23)c1.O=C(O)C(=O)O	23%
C[C@H](O)Cc1cn(-c2cc3cc(C#Cc4ccsc4)ccc3oc2=O)nn1	12.7%
Cc1ccc(OCC(=O)O/N=C(\N)Cc2cccs2)cc1C	7.6%
CC1CN(CCCCOc2cccc(Oc3ccccc3)c2)CC(C)O1.O=C(O)C(=O)O (stereo not shown)	-35.9%
O=C(N/N=C/c1ccccn1)c1cc(Br)ccc1O	-54.9%
COc1cc(C2NC(=O)NC(c3ccccc3)=C2C(C)=O)cc(Cl)c1OCC(=O)O (stereo not shown)	15.7%
CCOc1ccc(C(=O)Nc2cccc([N+](=O)[O-])c2)cc1Br	6.56%
N#CC1(NC(=O)COC(=O)CCCN=C2NS(=O)(=O)c3ccccc32)CCCCC1	15%
CCOC(=O)C1=C(COc2ccc(C)cc2)NC(=O)NC1c1cc(C)ccc1C (stereo not shown)	13.9%
O=C(/C=C/c1cccc([N+](=O)[O-])c1)c1ccco1	-7.85%
CSc1nc(C2CC2)cc(-c2cccs2)c1C#N	17%
Cc1nc(NCCCn2ccnc2)c2oc3ccccc3c2n1.Cl	-69.8%
CC(C)N(C)CCOC(=O)c1ccccc1Br.Cl	14.5%
COc1ccc(C2CCCN2C(=S)Nc2cccc(C)c2C)cc1OC (stereo not shown)	19.7%
Cc1cc(C)cc(C(=O)Nc2nc3ccccc3[nH]2)c1	14.4%

SMILES	hERG current change (%, negative = inhibition) at 10uM
CC1CCN(c2ccc(C(=O)OCC(=O)NCCN3C(=O)CSC3=O)cc2[N+](=O)[O-])CC1	-30.5%
Cc1cc(C)cc(C(=O)NCC(=O)OCC(=O)c2cc(C)n(CC(F)(F)F)c2C)c1	1.83%
CCOc1ccc(C2C(C(=O)c3ccc(C)o3)=C(O)C(=O)N2c2cc(C)on2)cc1OC (stereo not shown)	17.7%
CCCCNC(=O)N1CCN(Cc2ccc(F)cc2)CC1	-11.3%
O=[N+]([O-])c1cc2oc3c(c2c(C=NCc2ccccc2)c1O)CCCC3	9.56%
Cc1ccc(N2NC(=O)/C(=C\c3cc4c(cc3[N+](=O)[O-])OCO4)C2=O)cc1C	0.549%
CCC(c1nnc(SCC(=O)N2CC(=O)Nc3ccccc32)n1Cc1ccccc1)N(C)C (stereo not shown)	-4.75%
CC(C)(C)n1nc(Cc2cccc3ccccc23)c2c(N)ncnc21	-2.12%
Cc1cc(C)c2oc(=O)cc(CN3CCC(C)CC3)c2c1	-0.888%
O=C(NCCc1c[nH]c2ccccc12)C(=O)NCC1OCCCN1S(=O)(=O)c1ccccc1 (stereo not shown)	-11.8%
COc1ccc(CC(=O)Nc2nc(-c3ccc(OC)c(OC)c3)cs2)cc1OC	-15.8%
CC1CN(S(=O)(=O)c2cccs2)CC(C)O1 (stereo not shown)	-3.7%
COc1ccc(S(=O)(=O)Nc2ccc(Nc3ccccc3)cc2)cc1	5.15%
O=C(NC1CCCC1)c1ccc(Br)s1	-8.67%
CCOC(=O)CSc1nc2cc(OC)ccc2cc1C#N	10.1%
O=C(O)c1ccc2c(c1)C(=O)N(CCc1ccccc1)C2=O	20.4%
CN(C)c1cc[n+](CC(=O)Nc2ccc(OC(F)F)cc2)cc1.[Cl-]	16.4%
Cc1cc(NC(=O)C(C)SCC(=O)N(C)CC(=O)Nc2ccccc2Br)no1 (stereo not shown)	1.83%
CN(Cc1cnccn1)Cc1c(C(=O)N2CCc3ccccc3C2)nc2ccc(Cl)cn12	-23.4%
CC(=O)Nc1ccc(NC(=O)C(Cc2ccccc2)NC(=O)C2CCCCC2)cc1 (stereo not shown)	3.54%
CSc1nc2sc3c(c2c(=O)n1C)CCCC3	-13.5%
CC1(C)Cc2c(sc(NC(=O)C3CC(Cl)=CCC3C(=O)O)c2C#N)CO1 (stereo not shown)	8.57%

SMILES	hERG current change (%, negative = inhibition) at 10uM
COc1ccc(NC(=O)C2CCC(CNS(=O)(=O)c3cccs3)CC2)cc1 (stereo not shown)	17.8%
O=C(NCCCOc1cccc(CN2CCCCC2)c1)c1ccc(Cl)c(Cl)c1.O=C(O)C(=O)O	-60.8%
CCOC(=O)/C(=N\Nc1ccc(OC)cc1)c1csc(Nc2ccccc2)n1	8.24%
Cc1ccccc1N1CCN(Cc2ccc([N+](=O)[O-])o2)CC1	6.02%
CCC(NC(=O)c1ccccc1NC(=O)c1ccco1)C(=O)O (stereo not shown)	14%
Cc1csc(CNc2ncnc3ccc(-c4ccoc4)cc23)c1	7.55%
CC(C)(C)n1cnc2cc(NC(=O)c3ccc(Cl)cc3)ccc21	-59.1%
CCOc1ccc(/C=N/Nc2cc(=O)n(C)c(=O)n2C)cc1	-3.04%
C=CCOc1ccc(CN(C)C(=O)C2CCCO2)cc1 (stereo not shown)	2.34%
COc1ccccc1CCNC(=O)CN1C(=O)NC2(CCCC2)C1=O	-9.26%
COc1ccc(N2CCN(C(=O)C3CCN(S(=O)(=O)c4ccc(C)cc4)CC3)CC2)cc1	-10.2%
O=C(NCC1CCCO1)c1cc(S(=O)(=O)Nc2ccc(Br)cc2)ccc1Cl (stereo not shown)	-5.93%
CCOC(=O)C1(Cc2ccccc2)NC(c2ccccc2F)C2C(=O)N(CC)C(=O)C21 (stereo not shown)	-19.6%
CC(C)C(=O)Nc1cccc(C(=O)Nc2nnc(C(C)C)s2)c1	7.3%
CN(C)CCN(C(=O)C1CCN(S(=O)(=O)c2cccs2)CC1)c1nc2ccccc2s1.Cl	-42.9%
CCn1c(/C=C/c2ccccc2Cl)nc2ccccc2c1=O	19.1%
Cc1occc1C(=O)Nc1ccc(S(=O)(=O)N2CCCC2)cc1	-2.27%
CC(C)c1nc(SCC(=O)Nc2ccc3c(c2)OCO3)n[nH]1	24.1%
COC(=O)c1ccc2c(c1)NC(=O)C1CCCN21 (stereo not shown)	-1.97%
Cc1cnc(C(=O)NCc2ccc(Cl)cc2Cl)cn1	-11.3%
N#Cc1cnn2cc(-c3ncc(C(F)(F)F)cc3Cl)cnc12	-20.2%
O=C1[C@@H]2Cc3c([nH]c4ccccc34)C(c3cccc(Br)c3)N2C(=O)CN1C1CCN(Cc2ccccc2)CC1 (stereo partly shown)	4.66%
